Source: PMC10933316
No constants are given. Whether binding was seen depends on the method and setting. In cells and extracts the contact can be indirect. Some binding calls cover weakened binding; strength is not graded here.

Protein sequences, listed by entry. Tags and fused reporters are not part of them.
UniProt Q6PDQ2: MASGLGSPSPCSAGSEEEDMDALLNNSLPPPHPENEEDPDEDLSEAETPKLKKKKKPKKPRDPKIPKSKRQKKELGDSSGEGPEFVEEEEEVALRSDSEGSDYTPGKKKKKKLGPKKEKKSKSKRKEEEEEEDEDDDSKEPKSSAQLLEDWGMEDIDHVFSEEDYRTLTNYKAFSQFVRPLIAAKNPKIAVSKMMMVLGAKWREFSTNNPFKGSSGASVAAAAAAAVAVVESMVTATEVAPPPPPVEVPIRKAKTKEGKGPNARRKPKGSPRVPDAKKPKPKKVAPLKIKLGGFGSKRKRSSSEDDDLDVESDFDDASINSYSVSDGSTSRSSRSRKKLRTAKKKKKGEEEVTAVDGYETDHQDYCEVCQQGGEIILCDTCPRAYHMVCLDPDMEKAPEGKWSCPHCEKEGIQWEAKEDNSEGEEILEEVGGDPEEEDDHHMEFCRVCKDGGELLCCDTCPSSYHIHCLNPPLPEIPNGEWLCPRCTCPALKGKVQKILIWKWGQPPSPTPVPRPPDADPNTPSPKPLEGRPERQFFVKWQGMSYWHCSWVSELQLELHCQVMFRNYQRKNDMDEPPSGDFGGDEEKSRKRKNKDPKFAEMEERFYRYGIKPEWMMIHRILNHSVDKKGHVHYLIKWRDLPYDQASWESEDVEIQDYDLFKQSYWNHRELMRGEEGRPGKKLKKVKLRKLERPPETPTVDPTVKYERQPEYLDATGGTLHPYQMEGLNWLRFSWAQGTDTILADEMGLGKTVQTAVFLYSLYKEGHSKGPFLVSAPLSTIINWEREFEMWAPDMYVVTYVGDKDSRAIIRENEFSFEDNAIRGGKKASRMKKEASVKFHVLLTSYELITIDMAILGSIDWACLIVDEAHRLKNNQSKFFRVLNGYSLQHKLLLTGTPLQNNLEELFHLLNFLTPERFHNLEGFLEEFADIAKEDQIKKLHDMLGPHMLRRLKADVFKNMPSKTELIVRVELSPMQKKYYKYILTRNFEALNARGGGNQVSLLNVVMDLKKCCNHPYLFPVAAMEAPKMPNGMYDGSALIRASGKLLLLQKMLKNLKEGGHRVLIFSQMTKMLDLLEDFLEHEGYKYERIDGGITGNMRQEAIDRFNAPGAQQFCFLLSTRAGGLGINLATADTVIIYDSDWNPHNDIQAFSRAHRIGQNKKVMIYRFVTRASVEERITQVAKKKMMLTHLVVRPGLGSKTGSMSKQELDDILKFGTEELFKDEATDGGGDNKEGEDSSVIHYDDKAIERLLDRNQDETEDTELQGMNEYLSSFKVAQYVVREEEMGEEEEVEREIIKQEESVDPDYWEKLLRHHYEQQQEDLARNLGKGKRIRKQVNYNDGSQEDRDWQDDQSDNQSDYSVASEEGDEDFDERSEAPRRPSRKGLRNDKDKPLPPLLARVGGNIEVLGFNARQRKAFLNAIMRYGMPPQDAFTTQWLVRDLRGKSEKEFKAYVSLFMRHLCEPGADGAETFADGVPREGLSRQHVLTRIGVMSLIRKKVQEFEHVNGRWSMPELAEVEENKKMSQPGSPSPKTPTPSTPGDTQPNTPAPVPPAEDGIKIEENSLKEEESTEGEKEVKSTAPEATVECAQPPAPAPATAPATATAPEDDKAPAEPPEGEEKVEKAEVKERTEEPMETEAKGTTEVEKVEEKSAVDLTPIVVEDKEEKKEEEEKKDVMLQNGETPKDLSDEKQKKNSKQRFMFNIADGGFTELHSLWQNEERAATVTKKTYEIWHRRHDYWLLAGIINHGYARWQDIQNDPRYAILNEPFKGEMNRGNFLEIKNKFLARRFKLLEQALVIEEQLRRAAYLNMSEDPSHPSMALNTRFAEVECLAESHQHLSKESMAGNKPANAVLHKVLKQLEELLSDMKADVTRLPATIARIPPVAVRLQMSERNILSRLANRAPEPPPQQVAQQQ
UniProt Q9D4H8: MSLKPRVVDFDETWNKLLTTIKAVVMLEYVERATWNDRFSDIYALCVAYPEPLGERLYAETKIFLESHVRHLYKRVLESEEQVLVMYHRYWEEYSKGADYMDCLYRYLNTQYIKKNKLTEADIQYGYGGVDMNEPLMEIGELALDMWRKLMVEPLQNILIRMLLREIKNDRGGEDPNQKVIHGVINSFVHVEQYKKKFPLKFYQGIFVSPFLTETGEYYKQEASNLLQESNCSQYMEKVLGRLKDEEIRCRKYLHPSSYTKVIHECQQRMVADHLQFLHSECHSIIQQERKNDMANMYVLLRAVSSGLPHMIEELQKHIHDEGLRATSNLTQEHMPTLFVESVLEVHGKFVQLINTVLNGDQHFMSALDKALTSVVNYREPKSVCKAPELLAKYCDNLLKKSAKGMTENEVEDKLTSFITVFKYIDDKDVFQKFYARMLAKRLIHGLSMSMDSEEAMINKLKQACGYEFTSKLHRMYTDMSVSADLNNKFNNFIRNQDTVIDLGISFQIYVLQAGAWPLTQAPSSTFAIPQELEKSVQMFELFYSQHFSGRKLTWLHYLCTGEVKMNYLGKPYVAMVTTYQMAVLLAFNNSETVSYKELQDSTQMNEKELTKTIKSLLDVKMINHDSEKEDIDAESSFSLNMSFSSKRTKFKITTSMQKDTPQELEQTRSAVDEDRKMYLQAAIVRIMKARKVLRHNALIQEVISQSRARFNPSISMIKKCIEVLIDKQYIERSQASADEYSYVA

Assays:
[1] = biological target: T1, H/F-PRAMEL7WT (ESC line) (mouse) (UniProt Q810Y8); assay: co-IP; HA-IP from ESC + H/F-PRAMEL7WT and ESC + H/F-PRAMEL7ΔN lines; Western blot for PRAMEL7, CUL2 and neddylated CUL2
T1 sequence: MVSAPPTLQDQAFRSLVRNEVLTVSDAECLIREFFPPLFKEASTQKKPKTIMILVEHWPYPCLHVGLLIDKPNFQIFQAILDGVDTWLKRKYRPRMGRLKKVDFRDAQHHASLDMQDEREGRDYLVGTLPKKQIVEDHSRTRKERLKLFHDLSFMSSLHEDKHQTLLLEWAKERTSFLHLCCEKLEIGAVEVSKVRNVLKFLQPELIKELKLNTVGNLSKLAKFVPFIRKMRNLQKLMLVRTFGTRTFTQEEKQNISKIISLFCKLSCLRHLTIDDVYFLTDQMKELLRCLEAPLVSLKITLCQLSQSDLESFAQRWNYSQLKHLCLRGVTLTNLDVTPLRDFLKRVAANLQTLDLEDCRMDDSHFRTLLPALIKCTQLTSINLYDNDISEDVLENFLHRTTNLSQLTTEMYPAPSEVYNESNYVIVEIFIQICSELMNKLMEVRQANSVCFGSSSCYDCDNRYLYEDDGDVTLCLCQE

[2] = biological target: T2, H/F-PRAMEL7ΔN (ESC line) (mouse) (UniProt Q810Y8); assay: as above
T2 sequence: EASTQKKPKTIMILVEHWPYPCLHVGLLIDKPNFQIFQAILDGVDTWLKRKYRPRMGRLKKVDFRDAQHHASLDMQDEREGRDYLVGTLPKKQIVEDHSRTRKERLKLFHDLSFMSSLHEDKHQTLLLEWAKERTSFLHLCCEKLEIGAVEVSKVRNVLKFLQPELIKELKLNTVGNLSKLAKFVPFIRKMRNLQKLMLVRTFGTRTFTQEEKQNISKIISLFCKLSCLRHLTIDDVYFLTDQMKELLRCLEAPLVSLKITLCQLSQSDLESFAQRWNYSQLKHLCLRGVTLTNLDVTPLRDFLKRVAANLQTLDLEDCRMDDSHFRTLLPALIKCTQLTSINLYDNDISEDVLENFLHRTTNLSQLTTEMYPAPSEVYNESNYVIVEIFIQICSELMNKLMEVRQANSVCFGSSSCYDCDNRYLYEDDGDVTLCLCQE

[3] = biological target: CHD4 (mouse (endogenous in ESCs)) (UniProt Q6PDQ2); assay: co-IP; CHD4-IP of chromatin of ESC + H/F-PRAMEL7; Western blot for CHD4, CUL2 and PRAMEL7

Cullin2 (CUL2), endogenous in mouse ESCs (from UniProt Q9D4H8 1-745)
binding [1]: binds
binding [2]: no binding

neddylated CUL2, endogenous in mouse ESCs (from UniProt Q9D4H8 1-745)
binding [1]: binds
binding [2]: no binding

B1: H/F-PRAMEL7WT (ESC line) (protein, UniProt Q810Y8 1-479)
chain: MVSAPPTLQDQAFRSLVRNEVLTVSDAECLIREFFPPLFKEASTQKKPKTIMILVEHWPYPCLHVGLLIDKPNFQIFQAILDGVDTWLKRKYRPRMGRLKKVDFRDAQHHASLDMQDEREGRDYLVGTLPKKQIVEDHSRTRKERLKLFHDLSFMSSLHEDKHQTLLLEWAKERTSFLHLCCEKLEIGAVEVSKVRNVLKFLQPELIKELKLNTVGNLSKLAKFVPFIRKMRNLQKLMLVRTFGTRTFTQEEKQNISKIISLFCKLSCLRHLTIDDVYFLTDQMKELLRCLEAPLVSLKITLCQLSQSDLESFAQRWNYSQLKHLCLRGVTLTNLDVTPLRDFLKRVAANLQTLDLEDCRMDDSHFRTLLPALIKCTQLTSINLYDNDISEDVLENFLHRTTNLSQLTTEMYPAPSEVYNESNYVIVEIFIQICSELMNKLMEVRQANSVCFGSSSCYDCDNRYLYEDDGDVTLCLCQE
binding [3]: binds
